# Results as given in PubChem BioAssay AID588855 (National Center for Advancing Translational Sciences (NCATS), 2011).
# Out of some 410,000 compounds screened, about 5,000 (1.2%) were called active. This list was built around the results that the source calls inconclusive (neither active nor inactive); the mix of calls is not that of the screen. The call rests on the fitted dose curve; in most records, active means well fitted inhibition curve with a large enough effect; inconclusive means small, poorly fitted or top-dose-only effect; inactive means no such curve, though single readings can be large or run the other way. Potencies of inconclusive entries are doubtful fits and often do not repeat.
# Experiment: qHTS for Inhibitors of TGF-b; further: nearly all actives have a fitted effect of over 65% in size
# Details: HepG2 CAGA-GFP TGF-b/SMAD3 reporter, GFP fluorescence, 18 h, TGF-beta stimulated, 500 pg/mL final; series mostly up to 46.1 µM; activity, negative = inhibition: at the top concentration
# Method in brief: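 Using HEPG2 CAGA-GFP reporter cells at 1000 cells/well, we pinned test compounds, stimulated with recombinant TGF-beta (500 pg/mL final) and measured total well GFP after 18 h.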
# On the % scale 0 is the no-effect control and ±100 the full control effect; potency means the concentration at half of the fitted maximal effect; tags describe the fitted curve by direction and shape.
Compound,Potency,"activity, negative = inhibition"
CSc1nc2ccc(NS(=O)(=O)c3ccc(Br)s3)cc2s1,"inconclusive: 35.5 µM [inhibitor, single point]",–
CCc1nc2c(OCC(=O)c3ccc(Cl)cc3Cl)cccn2c1N(C=O)Cc1ccc(OC)cc1,"inconclusive: 35.5 µM [inhibitor, single point]",–
Cc1ccc(C2NC(=O)c3ccccc3N2)s1 (stereo not drawn),–,inactive: -8.98%
C=CCc1ccccc1OCC(O)CN1CCN(c2ccccc2)CC1 (stereo not drawn),"inconclusive: 20 µM [inhibitor, partial curve, poor fit]",–
Cc1cc2[nH]c(=O)c(=O)[nH]c2cc1S(=O)(=O)N(C)C1CCCCC1,–,inactive: -22.7%
O=C(Nc1cc(Cl)cc(Cl)c1)C1CC(=O)N(C2CCCC2)C1 (stereo not drawn),"inconclusive: 17.8 µM [inhibitor, single point]",–
COc1ccc(COC(=O)N/N=C(\C)CC(=O)Nc2ccc(Cl)cn2)cc1,"inconclusive: 3.16 µM [inhibitor, single point]",–
CCn1c(=O)n(CC)c2cc(N3CCCCC3)c(NC(=O)Nc3ccccc3C(F)(F)F)cc21,"inconclusive: 10 µM [inhibitor, partial curve]",–
COc1ccccc1C(=O)Nc1ccc2c(c1)nc(CN1CCCCC1)n2C,inactive,–
CCc1ccc2nc(N(CCN(C)C)C(=O)/C=C/c3cccs3)sc2c1,"inconclusive: 35.5 µM [inhibitor, single point]",–
O=S(=O)(CCOc1ccccc1)c1nc2ccccc2[nH]1,active: 15.8 µM,–
COc1cccc(OCc2cc(C(=O)N3CCN(C)C(c4ccccc4)C3)no2)c1 (stereo not drawn),–,inactive: 3.94%
CC(C)Cc1ccc(CN2CCCC(NC(=O)CCN3CCOCC3)C2)cc1 (stereo not drawn),–,inactive: -16.3%
O=C(Cc1csc(NC(=O)Nc2cccc(Cl)c2)n1)NCc1ccccn1,–,inactive: -0.395%
Cc1ccc(CNC(=O)Cn2cc(S(=O)(=O)Cc3ccccc3F)c3ccccc32)cc1,"inconclusive: 35.5 µM [inhibitor, single point]",–
COc1ccc(OCC(O)CNC(=O)Nc2cc(C)cc(C)c2)cc1 (stereo not drawn),"inconclusive: 15.8 µM [inhibitor, single point]",–
CN(C)S(=O)(=O)c1cccc(NC(=O)CSc2nc3ccccc3n2-c2ccccc2)c1,"inconclusive: 35.5 µM [inhibitor, single point]",–
CCOC(=O)C(CC)(CC)C(=O)/C=C/c1cccc(Br)c1,active: 14.1 µM,–
COc1ccccc1N1CCN(C(=O)CCNS(=O)(=O)c2ccc3c(c2)CCN3C(=O)C2CC2)CC1,–,inactive: -16.2%
CCCCN(Cc1cc2cc(OC)ccc2[nH]c1=O)C(=O)c1ccccn1,"inconclusive: 5.62 µM [inhibitor, single point]",–
CS(=O)(=O)N1CCc2cc(C(=O)NCCc3ccccc3)ccc21,"inconclusive: 0.447 µM [inhibitor, full curve]",–
O=NNc1nc2ccccc2n1Cc1ccccc1,"inconclusive: 10 µM [inhibitor, partial curve, poor fit]",–
COc1cc(CN2CCCC(N3CCN(c4ccc(F)cc4)CC3)C2)ccc1F (stereo not drawn),–,inactive: -0.794%

Compound,Potency,"activity, negative = inhibition"
COc1cc(/C=C2/SC(=O)NC2=O)ccc1Oc1ccc([N+](=O)[O-])cc1[N+](=O)[O-],"inconclusive: 14.1 µM [inhibitor, single point]",–
Cc1ccc(-c2cc(C(=O)N3CCN(S(=O)(=O)c4ccc(Br)cc4)CC3)[nH]n2)cc1C,"inconclusive: 6.31 µM [inhibitor, partial curve, poor fit]",–
O=C(NCc1ccccn1)Nc1ccc(F)cc1F,–,inactive: 2.29%
CCc1ccc(Nc2n[n+](-c3ccccc3)c(-c3ccc(OCc4ccccc4)cc3)s2)cc1,"inconclusive: 7.08 µM [inhibitor, full curve, poor fit]",–
O=C(Cc1c(F)cccc1Cl)Nc1ccccc1N1CCCCC1,"inconclusive: 11.2 µM [inhibitor, partial curve, poor fit]",–
O=C(Nc1ccc2oc(Cc3ccc(Cl)cc3)nc2c1)c1cccnc1,"inconclusive: 0.708 µM [inhibitor, full curve, poor fit]",–
CCC1(c2ccccc2)NC(=O)N(CC(=O)N2CCc3ccccc32)C1=O (stereo not drawn),"inconclusive: 35.5 µM [inhibitor, single point]",–
CCCn1c(/C=C/c2ccco2)nc2ccccc21,"inconclusive: 22.4 µM [inhibitor, single point]",–
CN1CCN(c2ccc(-c3cccc(NC(=O)COc4ccc(Cl)cc4)c3)nn2)CC1,–,inactive: 41.2%
OCCCNc1nc(-c2ccc(Cl)cc2)nc2ccccc12,"inconclusive: 14.1 µM [inhibitor, partial curve, poor fit]",–
Cc1noc(C)c1S(=O)(=O)NC(=O)C1(C)CCN1C(=O)CC(c1ccccc1)c1ccccc1 (stereo not drawn),–,inactive: -12.3%
CCN1CCN(c2ccc(NC(=O)c3cc4ccccc4cc3OC)cc2C)CC1,"inconclusive: 28.2 µM [inhibitor, single point]",–
Cc1n[nH]c(C)c1S(=O)(=O)N(CC(=O)NC(C)c1ccccc1)c1ccc(C(C)C)cc1 (stereo not drawn),"inconclusive: 35.5 µM [inhibitor, single point]",–
COc1ccccc1N(CCC#N)C(=O)CSc1ccc2c(c1)OCCO2,"inconclusive: 0.562 µM [inhibitor, full curve]",–
COc1cccc(NC(=O)Cn2cnc3c(nc4n3CCCCC4)c2=O)c1,–,inactive: -2.96%
CCN(C(=O)c1c([N+](=O)[O-])cnn1C)c1ccccc1,–,inactive: -7.49%
CC(C)CCNC(=O)Nc1ccc2c(c1)N(C)C(=O)c1ccccc1S2,active: 22.4 µM,–
COC(=O)CS(=O)(=O)c1nc2ccccc2nc1N1CCCCC1,"inconclusive: 35.5 µM [inhibitor, single point]",–
S=C(NCc1cccc(Cl)c1)NC1CCCCC1,"inconclusive: 35.5 µM [inhibitor, single point]",–
CCC/C=C/c1ccc(CN2C(C)C(=O)N(Cc3cn(CC4CCCCC4)nn3)CCS2(=O)=O)cc1 (stereo not drawn),"inconclusive: 25.1 µM [inhibitor, single point]",–
O=C(NC(c1ccccc1)c1ccc2ccccc2n1)C1CCN(Cc2ccc(Cl)c(Cl)c2)CC1 (stereo not drawn),"inconclusive: 15.8 µM [inhibitor, single point]",–
O=C(Nc1cccc(F)c1)Nc1cccc(Cl)c1,"inconclusive: 35.5 µM [inhibitor, single point]",–
CC(c1ccccc1)N1C(=O)/C(=C/c2ccncc2)SC1=S (stereo not drawn),"inconclusive: 11.2 µM [inhibitor, partial curve, poor fit]",–

Compound,Potency,"activity, negative = inhibition"
CSc1ccc(CCNC(=O)CCCn2nc(C)c3sc4ccccc4c3c2=O)cc1,"inconclusive: 0.562 µM [inhibitor, full curve, poor fit]",–
COC(=O)c1ccc(NCc2c(O)ccc(O)c2Br)cc1Cl,"inconclusive: 12.6 µM [inhibitor, single point]",–
CCOc1ccc(CNC(=O)CCS(=O)(=O)c2cc3c(cc2Cl)NC(=O)CO3)cc1OC,–,inactive: 1.9%
O=C(CCc1c[nH]c2ccccc12)OCc1ccc(Br)cc1,"inconclusive: 35.5 µM [inhibitor, single point]",–
COc1ccc(OC)c(C2(O)CSC(=Nc3cccnc3)N2Cc2ccco2)c1 (stereo not drawn),–,inactive: -11.2%
Cc1nn(-c2ccc(F)cc2)c(-n2cccc2)c1C(=O)NCCCN1CCN(c2ccccc2F)CC1,"inconclusive: 17.8 µM [inhibitor, single point]",–
Cc1ccc(-c2nnc(SCC(C)C)n2C)cc1,–,inactive: 9.51%
CC(C)(C)S(=O)N1Cc2cc(=O)n(Cc3ccccc3)c(CCO)c2[C@@H]1CCO (stereo partly drawn),"inconclusive: 5.62 µM [inhibitor, single point]",–
CC1=Nc2cc(C(=O)NC3CCCC3)ccc2Sc2ccc(C)cc21,"inconclusive: 1.12 µM [inhibitor, full curve, poor fit]",–
Cc1ccc(Nc2nnc(C)c(=O)[nH]2)cc1,"inconclusive: 6.31 µM [inhibitor, single point]",–
Cc1oc(-c2ccccc2F)nc1CS(=O)(=O)CC(=O)NCCN(C)C1CCCCC1,"inconclusive: 15.8 µM [inhibitor, partial curve, poor fit]",–
COc1ccc(CNC(=O)Nc2nc(C(N)Cc3ccc(C(F)(F)F)cc3)cs2)cc1 (stereo not drawn),active: 15.8 µM,–
O=C(Cc1cccs1)N/N=C\c1ccc([N+](=O)[O-])s1,"inconclusive: 3.55 µM [inhibitor, single point]",–
CC(C)c1ccc(CNC(=O)C2CCCN2S(=O)(=O)c2ccccc2)cc1 (stereo not drawn),"inconclusive: 35.5 µM [inhibitor, single point]",–
CN(CC(=O)Nc1ccc(Cl)cc1)C(=O)c1ccc(S(=O)(=O)Nc2ccccc2)cc1,–,inactive: -37.6%
CCCNC(=O)COC(=O)/C=C/c1cccc(F)c1,–,inactive: 2.43%
O=C(COC(=O)Cc1ccccc1F)Nc1ccc2[nH]c(=O)[nH]c2c1,"inconclusive: 35.5 µM [inhibitor, single point]",–
CC(C)C[C@H](NC(=O)[C@H](Cc1ccccc1)n1c(=O)[nH]c2ccccc2c1=O)C(=O)N1CCC[C@@H]1C(=O)O,–,inactive: 9.5%
CCc1ccc(C2CC(=O)Nc3c2c(C)nn3-c2nc(C)cc(C)n2)cc1 (stereo not drawn),"inconclusive: 10 µM [inhibitor, partial curve, poor fit]",–
CC(C)(C)n1ncc2c(=O)n(Cc3ccc(SC(F)(F)F)cc3)cnc21,active: 15.8 µM,–
FC(F)Sc1ccc(NC(=S)NCc2ccccc2)cc1,"inconclusive: 17.8 µM [inhibitor, single point]",–
O=C(Nc1ccccc1)C1=C[C@H](c2csc3ccccc23)C[C@H](OCc2ccc(CO)cc2)O1,"inconclusive: 0.112 µM [inhibitor, full curve, poor fit]",–
